Laboratory results from paper PMC7159923.
These are yes or no findings as the source states them, for the method shown. In cells and extracts the contact can be indirect. Some entries that bind do so weakly or less than the wild type. One block for each substance: values may come before it.

Chains of the proteins cited; added tags and fusions are not shown. Lines headed by an entry give the natural chain unless they say otherwise; changes in a name come on top. A line that says so, or that is headed by a name, gives the form on record, which may keep a tag or linker. Residues count along the entry.
UniProt Q6DN90: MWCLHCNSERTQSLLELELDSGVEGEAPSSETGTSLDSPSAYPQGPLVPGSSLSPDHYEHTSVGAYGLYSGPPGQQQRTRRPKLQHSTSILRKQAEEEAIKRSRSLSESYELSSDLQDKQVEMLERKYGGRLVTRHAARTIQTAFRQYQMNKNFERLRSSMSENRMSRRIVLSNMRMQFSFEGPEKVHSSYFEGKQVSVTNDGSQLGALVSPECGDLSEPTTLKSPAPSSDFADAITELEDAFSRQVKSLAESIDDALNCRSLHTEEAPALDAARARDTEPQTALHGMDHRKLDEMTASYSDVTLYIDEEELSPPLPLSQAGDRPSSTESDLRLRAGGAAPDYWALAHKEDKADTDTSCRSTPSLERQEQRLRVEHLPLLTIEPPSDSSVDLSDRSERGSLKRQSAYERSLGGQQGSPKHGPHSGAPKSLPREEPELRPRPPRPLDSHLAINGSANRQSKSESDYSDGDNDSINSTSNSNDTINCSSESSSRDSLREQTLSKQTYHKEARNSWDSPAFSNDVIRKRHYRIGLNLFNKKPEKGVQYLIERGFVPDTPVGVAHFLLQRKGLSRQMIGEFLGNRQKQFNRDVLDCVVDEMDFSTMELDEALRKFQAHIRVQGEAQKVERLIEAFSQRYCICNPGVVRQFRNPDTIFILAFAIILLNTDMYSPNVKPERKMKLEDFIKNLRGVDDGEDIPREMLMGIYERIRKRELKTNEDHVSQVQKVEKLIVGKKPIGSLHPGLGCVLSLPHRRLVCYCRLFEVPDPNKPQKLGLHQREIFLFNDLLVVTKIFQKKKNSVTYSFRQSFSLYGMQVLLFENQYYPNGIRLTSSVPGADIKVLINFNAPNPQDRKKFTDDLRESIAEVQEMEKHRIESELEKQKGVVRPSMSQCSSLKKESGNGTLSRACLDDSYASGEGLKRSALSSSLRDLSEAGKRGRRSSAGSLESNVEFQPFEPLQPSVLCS
mCherry-IQSec1^116-870: residues 130-884 of Q6DN90
mCherry-IQSec1^116-833: residues 130-847 of Q6DN90
mCherry-IQSec1^116-759: residues 130-773 of Q6DN90
mCherry-IQSec1^116-502: residues 130-516 of Q6DN90
mCherry-IQSec1^116-245: residues 130-259 of Q6DN90
mCherry-IQSec1^116-212: residues 130-226 of Q6DN90
GST-IQSec1^152-212: residues 166-226 of Q6DN90
mCherry-IQSec1 (Q6DN90-3, form named): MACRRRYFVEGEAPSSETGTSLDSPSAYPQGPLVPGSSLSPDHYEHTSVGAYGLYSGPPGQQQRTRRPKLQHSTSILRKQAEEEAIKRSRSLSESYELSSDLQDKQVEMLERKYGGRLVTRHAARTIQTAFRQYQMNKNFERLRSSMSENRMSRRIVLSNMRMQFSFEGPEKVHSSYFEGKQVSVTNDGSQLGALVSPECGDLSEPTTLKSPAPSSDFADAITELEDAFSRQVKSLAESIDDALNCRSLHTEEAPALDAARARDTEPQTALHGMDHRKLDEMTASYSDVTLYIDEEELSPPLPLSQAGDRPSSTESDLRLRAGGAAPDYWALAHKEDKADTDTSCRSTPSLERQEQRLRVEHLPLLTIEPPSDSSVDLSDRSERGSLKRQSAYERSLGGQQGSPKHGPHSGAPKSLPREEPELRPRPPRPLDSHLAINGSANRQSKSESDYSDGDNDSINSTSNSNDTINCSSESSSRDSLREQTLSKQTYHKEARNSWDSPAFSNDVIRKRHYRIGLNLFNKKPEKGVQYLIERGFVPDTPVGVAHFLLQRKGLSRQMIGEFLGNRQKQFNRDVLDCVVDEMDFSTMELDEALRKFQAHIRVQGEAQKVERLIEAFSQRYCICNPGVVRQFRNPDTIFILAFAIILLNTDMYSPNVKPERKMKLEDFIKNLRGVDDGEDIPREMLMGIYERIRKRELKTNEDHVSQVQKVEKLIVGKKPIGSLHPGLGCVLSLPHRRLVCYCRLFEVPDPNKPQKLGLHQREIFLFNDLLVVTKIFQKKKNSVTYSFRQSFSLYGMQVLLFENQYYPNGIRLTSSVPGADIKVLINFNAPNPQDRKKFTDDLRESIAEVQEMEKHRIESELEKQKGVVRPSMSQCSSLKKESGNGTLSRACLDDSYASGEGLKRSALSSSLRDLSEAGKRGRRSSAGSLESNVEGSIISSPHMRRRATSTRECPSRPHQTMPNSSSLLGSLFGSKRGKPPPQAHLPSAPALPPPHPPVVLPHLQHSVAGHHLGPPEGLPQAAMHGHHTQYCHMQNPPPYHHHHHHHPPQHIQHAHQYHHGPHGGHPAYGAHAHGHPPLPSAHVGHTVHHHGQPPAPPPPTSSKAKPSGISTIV
mCherry-IQSec1∆^152-212 (Q6DN90-3, form named): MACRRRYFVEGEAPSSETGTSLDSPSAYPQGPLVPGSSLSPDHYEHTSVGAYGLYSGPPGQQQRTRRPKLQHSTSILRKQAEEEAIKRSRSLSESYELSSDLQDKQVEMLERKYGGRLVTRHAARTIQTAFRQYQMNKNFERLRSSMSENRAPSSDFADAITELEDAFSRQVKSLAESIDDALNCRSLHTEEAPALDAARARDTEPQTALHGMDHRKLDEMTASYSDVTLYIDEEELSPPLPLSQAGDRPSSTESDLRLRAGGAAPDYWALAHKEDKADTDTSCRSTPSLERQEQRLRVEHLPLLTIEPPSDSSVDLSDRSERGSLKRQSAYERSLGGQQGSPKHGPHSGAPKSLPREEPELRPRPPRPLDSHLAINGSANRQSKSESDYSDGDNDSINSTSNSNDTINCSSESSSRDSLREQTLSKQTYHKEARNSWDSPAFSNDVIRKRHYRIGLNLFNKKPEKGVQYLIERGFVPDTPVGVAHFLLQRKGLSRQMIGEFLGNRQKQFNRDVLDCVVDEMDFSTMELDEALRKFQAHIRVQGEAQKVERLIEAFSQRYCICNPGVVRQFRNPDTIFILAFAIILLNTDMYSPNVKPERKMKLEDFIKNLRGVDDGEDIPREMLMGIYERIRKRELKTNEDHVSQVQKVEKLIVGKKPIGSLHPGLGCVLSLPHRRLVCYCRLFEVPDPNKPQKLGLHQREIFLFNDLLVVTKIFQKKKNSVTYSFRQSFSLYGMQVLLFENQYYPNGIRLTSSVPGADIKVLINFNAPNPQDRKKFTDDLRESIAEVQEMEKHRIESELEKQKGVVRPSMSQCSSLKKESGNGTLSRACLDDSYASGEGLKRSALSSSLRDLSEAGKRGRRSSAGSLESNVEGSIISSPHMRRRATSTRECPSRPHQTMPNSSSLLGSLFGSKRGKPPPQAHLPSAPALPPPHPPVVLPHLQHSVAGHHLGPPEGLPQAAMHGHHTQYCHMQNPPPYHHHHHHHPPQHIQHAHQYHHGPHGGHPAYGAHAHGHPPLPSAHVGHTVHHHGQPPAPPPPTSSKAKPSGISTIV
mCherry-IQSec1^116-1114 (Q6DN90-3, form named): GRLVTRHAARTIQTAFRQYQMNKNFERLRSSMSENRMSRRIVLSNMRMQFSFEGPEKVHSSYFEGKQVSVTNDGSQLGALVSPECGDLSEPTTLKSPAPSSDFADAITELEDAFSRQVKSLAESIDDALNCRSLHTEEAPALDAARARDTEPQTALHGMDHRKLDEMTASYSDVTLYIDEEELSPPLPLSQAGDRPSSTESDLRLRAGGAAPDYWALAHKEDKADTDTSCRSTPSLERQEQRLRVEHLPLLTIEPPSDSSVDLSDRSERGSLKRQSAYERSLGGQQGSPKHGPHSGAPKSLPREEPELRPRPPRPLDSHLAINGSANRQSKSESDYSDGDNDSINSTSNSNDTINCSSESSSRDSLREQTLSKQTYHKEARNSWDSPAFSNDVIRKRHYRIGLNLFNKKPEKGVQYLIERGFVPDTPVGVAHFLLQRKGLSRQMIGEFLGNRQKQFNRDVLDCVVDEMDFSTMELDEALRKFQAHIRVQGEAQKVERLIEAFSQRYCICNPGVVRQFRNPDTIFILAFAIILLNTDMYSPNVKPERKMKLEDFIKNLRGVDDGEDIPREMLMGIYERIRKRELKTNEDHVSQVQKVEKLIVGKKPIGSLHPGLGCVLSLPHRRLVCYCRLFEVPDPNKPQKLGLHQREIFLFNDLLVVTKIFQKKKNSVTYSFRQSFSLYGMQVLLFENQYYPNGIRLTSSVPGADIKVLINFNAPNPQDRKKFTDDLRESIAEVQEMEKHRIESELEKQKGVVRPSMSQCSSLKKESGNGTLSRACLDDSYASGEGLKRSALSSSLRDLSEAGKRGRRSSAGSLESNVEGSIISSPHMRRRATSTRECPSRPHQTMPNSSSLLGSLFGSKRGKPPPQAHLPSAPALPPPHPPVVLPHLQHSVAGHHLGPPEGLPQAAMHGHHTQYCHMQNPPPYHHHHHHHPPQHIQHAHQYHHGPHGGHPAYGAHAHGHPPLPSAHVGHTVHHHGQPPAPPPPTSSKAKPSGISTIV
UniProt Q9H4L5: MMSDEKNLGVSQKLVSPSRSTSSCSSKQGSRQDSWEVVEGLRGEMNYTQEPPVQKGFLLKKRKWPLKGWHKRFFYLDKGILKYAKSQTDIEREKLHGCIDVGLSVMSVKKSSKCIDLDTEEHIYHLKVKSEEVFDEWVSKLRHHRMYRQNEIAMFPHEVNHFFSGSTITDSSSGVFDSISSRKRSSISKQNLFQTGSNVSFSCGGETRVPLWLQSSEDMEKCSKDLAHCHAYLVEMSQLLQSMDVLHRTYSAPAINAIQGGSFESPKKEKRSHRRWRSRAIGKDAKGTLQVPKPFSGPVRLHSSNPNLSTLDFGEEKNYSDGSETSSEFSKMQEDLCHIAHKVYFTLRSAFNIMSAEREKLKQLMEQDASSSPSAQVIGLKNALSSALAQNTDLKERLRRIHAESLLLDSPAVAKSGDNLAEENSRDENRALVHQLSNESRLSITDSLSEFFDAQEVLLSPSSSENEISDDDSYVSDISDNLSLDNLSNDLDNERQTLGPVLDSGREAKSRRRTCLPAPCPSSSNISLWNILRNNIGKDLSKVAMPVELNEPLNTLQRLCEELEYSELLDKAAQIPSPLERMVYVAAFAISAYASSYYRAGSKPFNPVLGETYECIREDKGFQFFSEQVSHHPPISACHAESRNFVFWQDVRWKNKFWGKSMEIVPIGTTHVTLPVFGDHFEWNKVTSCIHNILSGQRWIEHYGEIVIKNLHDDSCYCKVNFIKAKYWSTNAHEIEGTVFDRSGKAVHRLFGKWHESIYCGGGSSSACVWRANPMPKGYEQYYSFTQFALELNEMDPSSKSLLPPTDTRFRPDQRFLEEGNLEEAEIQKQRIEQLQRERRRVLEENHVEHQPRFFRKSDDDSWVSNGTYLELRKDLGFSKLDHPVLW

How the values were obtained:
[1] = target: GST-IQSec1^152-212 (human) (UniProt Q6DN90); assay: condition: only after λ-phosphatase treatment of the lysate; pull-down; lysate of cells expressing mCherry-ORP3 supplemented with MnCl2 (1 mM) and incubated with 2000 Units of λ-phosphatase for 3 hr at 30°C, then with GST or GST-IQSec1 152-212 beads 60 min; washed with lysis buffer containing 1% NP-40; only the target purified
[2] = target: GST-IQSec1^152-212 (human) (UniProt Q6DN90); assay: pull-down; lysate of HEK-293 cells expressing mCherry-ORP3, not treated with phosphatase, incubated 60 min with beads containing 10 µg of GST alone or GST-IQSec1 152-212; immunoblot with anti-mCherry; only the target purified
mCherry-IQSec1 (human) [3] = target: mCherry-IQSec1 (human) (UniProt Q6DN90); assay: co-IP; lysates of HEK-293 cells co-expressing mCherry-IQSec1 (WT or mutants) and GFP-ORP3 (WT or mutants); immunoprecipitated with anti-mCherry antibody and protein A beads, NP-40 lysis buffer, 4°C; probed for GFP
mCherry-IQSec1 (human) [4] = target: mCherry-IQSec1 (human) (UniProt Q6DN90); assay: co-IP; cells expressing equivalent amounts of ORP3 and IQSec1, transfected with increasing amounts of vector encoding VAP-A; IQSec1 immunoprecipitated, blot probed for co-precipitating proteins
[5] = target: mCherry-IQSec1^116-759 (human) (UniProt Q6DN90); assay: co-IP; lysates of HEK-293 cells co-expressing mCherry-IQSec1 (WT or mutants) and GFP-ORP3 (WT or mutants); immunoprecipitated with anti-mCherry antibody and protein A beads, NP-40 lysis buffer, 4°C; probed for GFP
[6] = target: mCherry-IQSec1^116-212 (human) (UniProt Q6DN90); assay: as above
[7] = target: mCherry-IQSec1^116-502 (human) (UniProt Q6DN90); assay: as above
[8] = target: mCherry-IQSec1∆^152-212 (human) (UniProt Q6DN90); assay: as above
[9] = target: mCherry-IQSec1^116-245 (human) (UniProt Q6DN90); assay: as above
[10] = target: mCherry-IQSec1^116-1114 (human) (UniProt Q6DN90); assay: as above
[11] = target: mCherry-IQSec1^116-870 (human) (UniProt Q6DN90); assay: as above
[12] = target: mCherry-IQSec1^116-833 (human) (UniProt Q6DN90); assay: as above
GFP-ORP3 (human) = GFP-ORP3 (human) (UniProt Q9H4L5); assay: co-IP; lysates of cells co-expressing mCherry-IQSec1 and GFP-ORP3; GFP-ORP3 precipitated (GFP-TRAP beads; ORP3 immunoprecipitates), probed for mCherry-IQSec1; cells also treated with thapsigargin (1 µM), BTP2 (25 µM), PMA (2.5 µM) or Gö6983 (20 µM): more with thapsigargin or PMA, less with BTP2 or Gö6983

Substance: mCherry-ORP3 (from UniProt Q9H4L5 1-887)
binding [1]: no binding
binding [2]: binds

Substance: GFP-ORP3 (from UniProt Q9H4L5 1-887)
binding (mCherry-IQSec1 (human) [4]): binds
binding (mCherry-IQSec1 (human) [3]): binds
binding [5]: binds
binding [6]: binds
binding [7]: binds
binding [8]: no binding
binding [9]: binds
binding [10]: binds
binding [11]: binds
binding [12]: binds

Substance: ORP3^398-886 (from UniProt Q9H4L5 398-886) (domain or fragment)
binding (mCherry-IQSec1 (human) [3]): no binding

Substance: ORP3^1-445 (from UniProt Q9H4L5 1-445) (domain or fragment)
binding (mCherry-IQSec1 (human) [3]): no binding

Results, then the substance that gave them:

binding (mCherry-IQSec1 (human) [3]): binds
Substance: GFP-ORP3Δ^ORD (1-555) (from UniProt Q9H4L5 1-555) (domain or fragment)

binding (GFP-ORP3 (human)): binds
Substance: mCherry-IQSec1 (from UniProt Q6DN90-3 1-1114)
